This note sets out measurements from PubChem BioAssay AID1508624 (National Center for Advancing Translational Sciences (NCATS), 2021).

The structures appear in SMILES notation. In all, about 48,000 compounds went through this assay and about 120 (0.25%) were called active. Roughly 4% stayed inconclusive and do not appear here. Calls follow the shape of the dose curve; as a rule, active = well fitted activation curve with a large enough effect; inconclusive = small, poorly fitted or top-dose-only effect, or another doubt; inactive = no such curve, though single readings can be large or run the other way. The list shows a part of the results.

The test in a line: Primary qHTS for Identification of Small Molecule Activators of Huntingtin-Antisense Promoter Activity. Also: nearly all actives have a fitted effect of over 55% in size. To be noted: HEK293 HTT-AS promoter firefly luciferase reporter (activity 0% = vehicle and -100% = no light), 24 h; series mostly up to 57.5 µM; activity change, positive = activation: at the top concentration. A digest of the protocol: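 HEK293 Fluc reporter, 2,500 cells/well, 24 h pre-culture; cpds up to 57.5 uM final, 24 h 37 degrees C; Dual-Glo, 10 min RT; normalized vehicle = 0%, zero RLU = -100%.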
In general terms: Quantitative high-throughput screening tests each substance at several concentrations.
As to `O=C(c1ccccc1)n1nc(-c2ccc(Cl)cc2)nc1NCc1ccco1`, the “activity change, positive = activation” value is inactive: 26.4%.
The figure for `CSc1ccc(CCNC(=O)Cn2ncc3c([nH]c4ccccc43)c2=O)cc1` is inactive: -16.5%.
The figure for `CCOC(=O)c1cc2c(=O)n3ccccc3nc2n(CCOC)c1=NC(=O)c1c(-c2c(F)cccc2Cl)noc1C` is inactive: -29.3%; for `Cc1ccc2occ(CC(=O)Nc3c(C)cccc3C)c2c1` it is inactive: -13.7%; for `CCCN(C(=O)c1ccc2c(=O)n3c(nc2c1)CCCCC3)c1cccc(Cl)c1` it is inactive: -5.34%.
The value for `Cc1cc(C)cc(NCc2nnc3n2CCCCC3)c1` was inactive: -4.28%.
`COc1ccc(OCC(=O)N2CCN(C(=O)c3ccc(OC)c(OC)c3)CC2)cc1`: the “activity change, positive = activation” value is inactive: -4.14%.
The value for `Cc1cccc(C)c1NC(=O)CCSCCc1ccccn1` was inactive: -10.8%; that for `Cc1cccc(C)c1NC(=O)C(C)N` (stereo unspecified) was inactive: -7.85%; that for `COc1cn(CC(=O)Nc2ccc(C)cc2)c(CN2CCCCC2)cc1=O` was inactive: 0.383%.
As for `CC(=O)N1CCc2cc(Br)cc(S(=O)(=O)CCC(=O)NCc3ccc(F)cc3)c21`, the “activity change, positive = activation” value is inactive: -5.41%.
On to `O=C(CCNS(=O)(=O)c1ccc2c(c1)CCN2C(=O)C1CC1)Nc1ccc(Cl)cc1`, for which the “activity change, positive = activation” value is inactive: -39.5%.
The figure for `COc1ccccc1CN1CCC(CNC(=O)c2cnn(-c3cccc(Cl)c3)c2C2CCN(C(=O)OC(C)(C)C)CC2)CC1` is inactive: -13.8%; for `COC(=O)c1c(NC(=O)c2cc(=O)c3cc(C)cc(C)c3o2)sc2c1CCC2` it is inactive: 4.37%; for `CCOC(=O)c1ccc(NC(=O)c2nc(SCc3ccc(F)cc3)ncc2Cl)cc1` it is inactive: -32.1%.
For `COc1ccccc1NC(=O)c1cc2cc3ccc(OC)c(Cl)c3nc2s1`, the “activity change, positive = activation” value was inactive: -4.24%.
In the case of `Cc1ccc(CC(=O)NCc2nc(-c3ccccc3)no2)cc1`, the “activity change, positive = activation” value is inactive: -4.31%.
Take `CCCCn1c(=O)c2oc3ccccc3c2n(Cc2ccc(C)cc2)c1=O`: the “activity change, positive = activation” value is inactive: -3.93%.
The figure for `COc1ccc2ncc3c(-c4ccc(C)c(C)c4)nn(CC(=O)Nc4ccccc4)c3c2c1` is inactive: -18.1%; for `Cc1cc(SCC(=O)Nc2ccc(F)cc2F)nc(=O)[nH]1` it is inactive: -11.4%; for `COc1ccccc1C(=O)NC(=O)Nc1ccc(-c2cc(C(F)(F)F)nn2-c2ccccc2)cc1` it is inactive: -62.7%.
The figure for `CCc1ccc(C(=O)c2cn(CC(=O)Nc3ccc4c(c3)OCO4)c3ccc(Cl)cc3c2=O)cc1` is inactive: -12.7%; for `CCc1ccc(N(CC)C(=O)c2cn(C)c(=O)c3cc(OC)c(OC)cc23)cc1` it is inactive: -11.8%.
As to `NS(=O)(=O)c1ccc(N2CCCCS2(=O)=O)cc1`, the “activity change, positive = activation” value is inactive: 1.66%.
The figure for `CC(C)(C)C1CCc2c(sc3nc(-c4cc5cc(Cl)ccc5oc4=O)[nH]c(=O)c23)C1` (stereo unspecified) is inactive: 1.05%; for `CCN(CC)c1ccc(NC(=O)C2CCN(S(=O)(=O)c3c(C)noc3/C=C/c3ccccc3F)CC2)c(C)c1` it is inactive: 2.84%.
`Cc1ccc(NC(=O)Cn2nc(C(F)(F)F)c3c2CCCC3)cc1`: the “activity change, positive = activation” value is inactive: -22.9%.
Consider `Cc1ccc(S(=O)(=O)NCCc2nnc3ccc(SCC(=O)Nc4c(C)cc(C)cc4C)nn23)cc1`, for which the “activity change, positive = activation” value was inactive: -15.1%.
The figure for `CCOc1ccc(CCNC(=O)c2c3c(nc4ccccc24)C(=O)N(C2CCCCC2)C3)cc1` is inactive: -19.5%; for `CCn1c(CNC(=O)c2ccc(OC)cc2)nnc1SCC(=O)Nc1cccc(C)c1` it is inactive: -11.4%; for `Cc1ccc(S(=O)(=O)N2CCCc3cc(NC(=O)c4ccc(Cl)cc4)ccc32)cc1` it is inactive: 12.3%.
The figure for `O=C(Nc1cccc(C(F)(F)F)c1)Nc1cc(S(=O)(=O)NC2CC2)ccc1-c1ccsc1` is inactive: -18.3%; for `Cc1ccc(C)c(NC(=O)c2oc(=O)c3ccccc3c2-c2ccccc2)c1` it is inactive: -32.9%; for `CCCc1nn2c(=O)cc(COC(=O)c3ccc4c(c3)OCO4)nc2s1` it is inactive: 6.06%.
The figure for `Cc1cc2nc(-c3ccc(OCc4ccccc4F)cc3)cc(C(F)(F)F)n2n1` is inactive: 0.616%; for `Cc1ccc(-c2c(C(=O)Nc3ccccc3F)oc(=O)c3ccccc23)cc1` it is inactive: -12.8%; for `CCOC(=O)c1cccc(NC(=O)C2=C(C)C(=O)OC23CCCCC3)c1` it is inactive: -16.9%.
On to `Cc1ccc(C)c(N2CCN(C(=O)Cn3cnc4nc5c(cc4c3=O)CCCC5)CC2)c1`, for which the “activity change, positive = activation” value is inactive: -33.5%.
On to `Cc1ccc(C)c(Cn2c(SCC(=O)NCc3ccccc3)nc3ccccc32)c1`, for which the “activity change, positive = activation” value is inactive: -30.9%.
Take `Cn1c(NCCN)nc2c1c(=O)n(Cc1ccccc1)c(=O)n2C`: the “activity change, positive = activation” value is inactive: 8.44%.
The figure for `O=C(Cn1cc(S(=O)(=O)Cc2ccccc2F)c2ccccc21)Nc1ccc(F)c(Cl)c1` is inactive: -43.9%.
In the case of `COc1ccc(CNc2ncnc3c2c(-c2ccccc2)cn3-c2ccc(C)c(Cl)c2)cc1`, the “activity change, positive = activation” value was inactive: -25%.
The value for `COc1cccc(C(=O)Nc2nc(-c3nnn(-c4cccc(Cl)c4C)c3C)ns2)c1` was inactive: -31.1%.
Consider `COc1ccc(NC(=O)Cn2c(=O)n(-c3ccc(OC)cc3)c(=O)c3sc4ccccc4c32)cc1`, for which the “activity change, positive = activation” value was inactive: -5.21%.
The value for `COc1ccc2c(CNCc3ccco3)c(C(=O)O)n(Cc3cccc(F)c3)c2c1` was inactive: -24.3%; that for `CCCN(CCC)C(=O)C1CCN(c2cc(C)nc3c(-c4ccc(Cl)cc4)c(C)nn23)CC1` was inactive: -1.05%.
Regarding `COc1ccc(C(=O)Nc2ccc(-c3nc4ccccc4s3)c(Cl)c2)cc1Cl`, the “activity change, positive = activation” value was inactive: -6.17%.
The figure for `Cn1c(NCCCO)nc2c1c(=O)n(Cc1cccc(F)c1)c(=O)n2C` is inactive: 5.72%; for `COc1cc(C(=O)Nc2cc(C)c(O)c(-c3nc4ccccc4s3)c2)cc(OC)c1OC` it is inactive: -14.9%.
The value for `O=C(NCCO)c1ccc(-c2nnc(Nc3ccc(OC(F)(F)Cl)cc3)c3ccccc23)cc1` was inactive: -49.1%; that for `O=C(CSc1nc2ccsc2c(=O)n1-c1ccc(Br)cc1)NCc1ccc(Cl)cc1` was inactive: -23.9%; that for `COc1cccc(-c2nc(CS(=O)(=O)CC(=O)Nc3ccc(C)c(Cl)c3)c(C)o2)c1` was inactive: -31.2%.
Turning to `COc1ccc(CCNC(=O)Cc2ccc(NC(=O)N3CCSc4ncccc43)cc2)cc1OC`, the “activity change, positive = activation” value is inactive: -11.7%.
As to `Cc1cccc(NC(=O)c2cc3c([nH]c2=O)CC(c2ccccc2)CC3=O)c1` (stereo unspecified), the “activity change, positive = activation” value is inactive: -4.45%.
The figure for `O=C(Cn1c(=O)n(Cc2ccc(F)cc2)c(=O)c2sc3ccccc3c21)Nc1ccc(F)cc1F` is inactive: -8.9%; for `COc1cc(C(=O)NCc2nc(-c3ccc(Cl)cc3)no2)cc(OC)c1OC` it is inactive: -8.93%.
On to `COC(=O)CCNC(=O)N1CCN(c2nnc(C)c3c(C)n(-c4ccccc4)nc23)CC1`, for which the “activity change, positive = activation” value was inactive: -1.83%.
The figure for `COc1cccc(CNC(=O)Cn2cccc2C(=O)c2ccccc2)c1` is inactive: 21.3%; for `COc1ccc(C(=O)N2CCN(c3nc4c(OC)cccc4s3)CC2)cc1OC` it is inactive: -26.4%; for `CCOC(=O)c1cc(-c2ccccc2)n(-c2cccc(C(=O)NC(C)(C)C)c2)c1C` it is inactive: -30%.
The figure for `CCOc1ccc(S(=O)(=O)NCc2cccn2Cc2cccc(C)c2)cc1` is inactive: -17.2%.
